The campaign covered roughly 16,000 compounds. About 120 (0.75%) were called active. Another 4% or so got no clear call; they are omitted. The call rests on the fitted dose curve; in most records, active means well fitted inhibition curve with a large enough effect; inconclusive means small, poorly fitted or top-dose-only effect; inactive means no such curve, though single readings can be large or run the other way. This is one part of the list. Where a SMILES comes first, the peptide text is derived from it. Bridges are numbered along the chain shown (N, C = ends).

This assay deals with Rap guanine nucleotide exchange factor 3 (Homo sapiens) (UniProt O95398). The experiment in a line: Validation qHTS for antagonist of cAMP-regulated guanine nucleotide exchange factor 3 (EPAC1).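 Further: plate controls were DMSO for no effect and ATA control for full effect; nearly all actives have a fitted effect of over 75% in size.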 The conditions noted are these: EPAC1 Rap1B-BODIPY-GDP exchange, fluorescence; series mostly up to 150 µM; activity change, negative = inhibition: at the top concentration. A digest of the protocol: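 Nucleotide exchange followed as fluorescence loss when BODIPY-GDP leaves Rap1B (480 nm excitation, 540 nm emission), read at 5 min intervals over 30 min. Reaction: 100 nM EPAC1, 250 nM RAP1B-BODIPY-GDP, 50 uM GDP; ATA and DMSO define normalization.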
UniProt O95398, sequence (O95398 whole entry, looked up): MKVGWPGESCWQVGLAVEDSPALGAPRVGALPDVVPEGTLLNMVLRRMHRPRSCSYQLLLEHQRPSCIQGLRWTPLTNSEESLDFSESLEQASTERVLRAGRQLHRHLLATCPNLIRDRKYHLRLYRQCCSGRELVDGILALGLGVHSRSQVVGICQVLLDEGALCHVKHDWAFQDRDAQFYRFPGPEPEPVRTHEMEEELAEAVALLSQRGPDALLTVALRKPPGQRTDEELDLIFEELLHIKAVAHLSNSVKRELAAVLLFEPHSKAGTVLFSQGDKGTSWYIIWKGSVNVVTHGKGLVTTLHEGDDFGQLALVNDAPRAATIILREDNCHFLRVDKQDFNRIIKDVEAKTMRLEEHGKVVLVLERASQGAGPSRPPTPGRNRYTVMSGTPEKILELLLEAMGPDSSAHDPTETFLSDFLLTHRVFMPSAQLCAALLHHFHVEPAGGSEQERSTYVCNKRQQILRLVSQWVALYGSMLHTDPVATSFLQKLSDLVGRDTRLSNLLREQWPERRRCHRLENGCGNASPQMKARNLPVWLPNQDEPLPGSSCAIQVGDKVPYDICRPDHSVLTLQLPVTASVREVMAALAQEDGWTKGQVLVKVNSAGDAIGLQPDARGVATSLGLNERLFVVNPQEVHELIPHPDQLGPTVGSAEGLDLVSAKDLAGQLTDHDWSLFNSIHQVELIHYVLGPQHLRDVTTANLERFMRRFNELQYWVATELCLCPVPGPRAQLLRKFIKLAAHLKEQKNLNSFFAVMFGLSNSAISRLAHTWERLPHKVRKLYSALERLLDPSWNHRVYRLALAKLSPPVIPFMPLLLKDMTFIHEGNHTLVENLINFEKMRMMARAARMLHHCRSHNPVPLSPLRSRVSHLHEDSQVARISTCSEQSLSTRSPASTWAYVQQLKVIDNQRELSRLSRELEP
(In general: qHTS replaces the single test concentration by a dilution series.)
Turning to `Nc1ccc(O)cc1`, the “activity change, negative = inhibition” value was inactive: -22.7% [at 320 µM].
Then `CC(C)NCC(O)c1ccc(O)c(O)c1` (stereo not drawn), with “inactive”; and `CC(C)(C)NC(=O)[C@@H]1C[C@@H]2CCCC[C@@H]2CN1C[C@@H](O)[C@H](Cc1ccccc1)NC(=O)[C@H](CC(N)=O)NC(=O)c1ccc2ccccc2n1`, with inactive: -21.1%; and `O=C(NCC1Cc2cccc(-c3cncnc3)c2O1)C1CC1` (stereo not drawn), with inactive: 9.37%.
Then `CN1CCN(c2ncnc3ccc(-c4ccccc4C(F)(F)F)cc23)CC1`, with inactive: -7.54%; and `C[C@@H]1CCC(=O)N(CC[C@H](Sc2ccccc2)c2ccccc2)CC1`, with inactive: -2.57%.
Then `COCC(=O)N1CCC2(CC1)CCN(c1ccc(-c3ccccc3)cc1)CC2`, with inactive: 11.1%.
As to `CCN(CC)c1ccc(N=Nc2ccc(S(=O)(=O)N(C)C)cc2)c(S(=O)(=O)NCC[n+]2ccccc2)c1`, the “activity change, negative = inhibition” value is inactive: 19.8%.
Then `COC(=O)c1ccccc1-c1cc(C)cc2c1OC(CNC(=O)C1CCOC1)C2` (stereo not drawn), with inactive: 3.47%.
With `Cc1cc(NC2CCCCC2)nc(-n2nc(C)cc2C)n1` the figure was inactive: 10.6% [at 75.8 µM]; with `NCCSSCCN`, “inactive”; with `CC(C)CN1CCC(=O)N([C@H](CSc2ccccc2)Cc2ccccc2)CC1`, inactive: -15.7%.
With `Nc1nc2c(ncn2COCCO)c(=O)[nH]1` the entry was “inactive”; with `CN(C)c1nc(-c2cccc(NS(C)(=O)=O)c2)nc2ccccc12`, inactive: -5.27%; with `COC(=O)C1=C(C(=O)OC)[C@]2([C@H]3C/C=C\CN[C@@H](Cc4ccccc4)C(=O)N3Cc3ccccc3)C=C[C@H]1O2`, inactive: -4.37%.
Regarding `O=Nc1ccc(/C=C/c2ccnc3ccccc23)cc1`, the “activity change, negative = inhibition” value was inactive: 17.4%.
With `NC(=O)n1c(O)c(C(=O)c2cccs2)c2cc(Cl)ccc21`, the “activity change, negative = inhibition” value is inactive: 22.1%.
For the molecule `CN(C)c1ccc(/C=c2\[nH]c(=O)/c(=C/c3ccc(N(C)C)cc3)[nH]c2=O)cc1`, the “activity change, negative = inhibition” value was inactive: 8.25%.
With `CC(=O)O[C@H]1C(=O)[C@@]2(C)C([C@H](OC(=O)c3ccccc3)[C@]3(O)C[C@H](OC(=O)[C@H](O)[C@@H](NC(=O)c4ccccc4)c4ccccc4)C(C)=C1C3(C)C)[C@]1(OC(C)=O)CO[C@@H]1C[C@@H]2O` (stereo partly drawn) the entry was “inactive”; with `N#CCCn1c(=O)c(CCc2ccccc2)nc2cnc(OCc3ccccc3)nc21`, inactive: -7.59%; with `Cc1cc(C(=O)Nc2cccc(-c3nc(CNC(=O)c4ccc[n+]([O-])c4)c(C)o3)c2)c(C)o1`, inactive: 5.97%.
On to `O=C(c1ccc2c(c1)OCO2)N1CCCCC1`, for which the “activity change, negative = inhibition” value was inactive: 1.3%.
For `N#CCCn1c(=O)c(-c2cccs2)nc2cnc(N3CCNCC3)nc21`, the “activity change, negative = inhibition” value was inactive: 18%.
Consider `NCCCCCCNS(=O)(=O)c1cccc2ccccc12`, for which the “activity change, negative = inhibition” value was inactive: -2.47%.
Regarding `O=C(Oc1ccccc1)c1ccccc1O`, the “activity change, negative = inhibition” value was inactive: 9.84%.
With `O=c1c(-c2ccc(Cl)cc2)nc2cnc(N3CCNCC3)nc2n1Cc1ccc(F)cc1` the figure was inactive: 3.55%; with `CC(=O)OCC(=O)[C@@]1(O)[C@H](C)C[C@H]2[C@@H]3CCC4=CC(=O)C=C[C@]4(C)[C@@]3(F)[C@@H](O)C[C@@]21C`, “inactive”.
With `COc1ncnc(NS(=O)(=O)c2ccc(N)cc2)c1OC` the figure was inactive: -6.57%; with `O=C(C[n+]1cccc(Br)c1)c1ccc(-c2ccccc2)cc1`, inactive: 0.0132%.
As for `COc1ccc(C(=O)c2ccccc2)c(O)c1`, the activity change, negative = inhibition result is “inactive”.
Turning to `COc1ccc(C(=O)NCC2Cc3cc(C)cc(-c4cc(C(C)=O)ccc4F)c3O2)c(OC)c1OC` (stereo not drawn), the “activity change, negative = inhibition” value was inactive: 11.9%.
`c1cncc(-c2nc(NCCN3CCOCC3)c3ccccc3n2)c1`: the “activity change, negative = inhibition” value was inactive: 15.8%.
With `CC1(O)/C=C\C=C(\CO)C2CC(C)(C)C2(O)CC1` (stereo not drawn), the “activity change, negative = inhibition” value was inactive: 21.8%.
Regarding `CCC(C(N)=O)c1ccccc1` (stereo not drawn), the “activity change, negative = inhibition” value was inactive: -12.7%.
On to `O=c1c(-c2ccc(Cl)cc2)nc2cnc(N3CCNCC3)nc2n1-c1ccccc1`, for which the “activity change, negative = inhibition” value was inactive: 4.92%.
For the molecule `CCOc1cc(CC(=O)N[C@@H](CC(C)C)c2ccccc2N2CCCCC2)ccc1C(=O)O`, the “activity change, negative = inhibition” value was inactive: 19.4% [at 75.8 µM].
As for `COc1cc2c(cc1OC)C1(O)C(=O)c3ccc(O)c(C(=O)O)c3OC1CO2` (stereo not drawn), the “activity change, negative = inhibition” value is inactive: 2.39%.
Then `Nc1ccnc2c1ncn2[C@@H]1O[C@H](CO)[C@@H](O)[C@H]1O`, with inactive: 18.8%.
Then `COc1cc(/C=C/CN2CCOc3ccc(C(O)c4cccnc4)cc3C2)ccc1O` (stereo not drawn), with inactive: -2.91%; and `COc1ccccc1-c1cc(Nc2ccn[nH]2)ncn1`, with inactive: -1.49%; and `COc1ccc2c(c1)CCc1cnc(-n3ncc(C(=O)N(C)CCc4ccccn4)c3C)nc1-2`, with inactive: 15.1%.
Regarding `N#Cc1cccc(-c2ccc3ncnc(NCc4cccs4)c3c2)c1`, the “activity change, negative = inhibition” value is inactive: 12.7%.
With `CCOC(=O)C1CCCCN1Cc1nc(N2CCN(C(C)=O)CC2)c2ccccc2n1` (stereo not drawn) the figure was inactive: 7.47%; with `CC1(C)CC23C(=O)CCC(O)C2(C)CCC13` (stereo not drawn), inactive: 20.3%.
With `Cc1nc(C)c(CC(=O)N2CCOc3ccc(CN4CCN(c5ccccn5)CC4)cc3C2)s1` the figure was inactive: 9.45%.
Then `COc1cccc(-c2ccc3ncnc(NCCNC(C)=O)c3c2)c1`, with inactive: 5.55%; and `Cc1cc(OCCOCC[N+](C)(C)Cc2ccccc2)ccc1C(C)(C)CC(C)(C)C`, with inactive: 21%.
For `Cc1nc2cnc(Nc3ccccc3)nc2n(CCc2ccccc2)c1=O`, the “activity change, negative = inhibition” value was inactive: 2.49%.
With `COc1cc2c(cc1OC)C(c1ccccc1)=NCC2` the figure was inactive: 1.38%; with `COc1cccc(C=NC=Nc2cccc(OC)c2)c1`, inactive: -20.7%.
Consider `C[N+](C)(CCCCCC[N+](C)(C)CCCN1C(=O)c2cccc3cccc(c23)C1=O)CCCN1C(=O)c2cccc3cccc(c23)C1=O`, for which the “activity change, negative = inhibition” value is inactive: -1.42% [at 75.8 µM].
With `C[C@H](NC[C@H](O)CP(=O)(O)CC1CCCCC1)c1ccc(Cl)c(Cl)c1`, the activity change, negative = inhibition entry was “inactive”.
For the molecule `CC(C)=CC1C(CO)C1(C)C` (stereo not drawn), the “activity change, negative = inhibition” value was inactive: 14%.
`CC(C)n1cnc2c(NCc3ccccc3)nc(NCCO)nc21`: the “activity change, negative = inhibition” value was inactive: 15.9%.
With `NCCCC[C@H](NC(=O)[C@@H]1CCCN1C(=O)[C@@H]1CSSC[C@H](N)C(=O)N[C@@H](Cc2ccccc2)C(=O)N[C@@H](Cc2ccccc2)C(=O)N[C@@H](CCC(N)=O)C(=O)N[C@@H](CC(N)=O)C(=O)N1)C(=O)NCC(N)=O` (H-CFFQNCPKG-NH2; disulfide 1-6) the figure was inactive: -1.51%; with `[O]=[Bi][O]C(=O)[O][Bi]=[O]`, inactive: 22.7%.
Then `Cc1occc(=O)c1O`, with inactive: 4.53%; and `O=C(O)c1ccc(OCCn2ccnc2)cc1`, with inactive: 18%.
With `COc1ccc(CNC(=O)C[C@H]2C(=O)N(Cc3ccc(OC)cc3)C[C@@H]2Cc2ccccc2)cc1` the figure was inactive: 0.242%; with `O=C(O)COc1ccc(CCNS(=O)(=O)c2ccccc2)s1`, inactive: 13.5%.
On to `NC(CCCP(=O)(O)O)C(=O)O` (stereo not drawn), for which the “activity change, negative = inhibition” value is inactive: 20.6% [at 75.8 µM].
In the case of `CCCS(=O)(=O)NCc1c(C)ncc2c1CCN(C(=O)c1ccc(F)c(F)c1)C2`, the “activity change, negative = inhibition” value is inactive: 20.6%.
Then `COc1cc(-c2cc(C)c3cccc(OC)c3n2)cc2c1OCCN(C(=O)CCn1ccc(C)n1)C2`, with inactive: 15%.

The values above are taken from PubChem BioAssay AID1645882 (National Center for Advancing Translational Sciences (NCATS), 2021).
